Measurements as given in the RNAGym collection of RNA variant scans (doi:10.7554/elife.90254).
The source gives no read counts; variants with many changes may rest on few reads.

B1: LINE1-mini (parent)
chain: GGCAGAGCUCAACACAGCGUGGCAAAGUGGCUGUGGCUAGACUGCC

Variants of: B1
Assay: self-cleavage, relative activity (ratio to wild type); higher = more cleavage; in vitro, sequencing; the parent is a self-cleaving ribozyme

| Variant | self-cleavage |
| --- | --- |
| A14C C15U G44C | 0.04 |
| A14G C18U A26U | 0.01 |
| C13U G30U G36U A41G | 0.06 |
| A14U A26C U38G U43A | 0.09 |
| C13U G19U G36C | 0.04 |
| C13U G33U A39C | 0.08 |
| A14G G35U G36C | 0.02 |
| C13G G22C A25C G29U G30C C31U U34A | 0.01 |
| C13U A14C A16U | 0.08 |
| A14G A16U A25U C37U A41U G44C | 0.02 |
| C13U G30U C46G | 0.04 |
| C13G G19C G40A | 0.1 |
| A14C C31G G36A U38C A39G | 0.03 |
| C13U C18A U34G | 0.01 |
| A14C C18U G36U | 0.11 |
| C13U A26C G29U | 0.21 |
| A14C C15U G17C A25G | 0 |
| C13G G30U G36A | 0.05 |
| A14C A24G C46A | 0.01 |
| C13U C18U G22A A25C U43C | 0.03 |
| A14G C18G G22A U32G U34G C45G | 0.01 |
| A14C G17U G19A C37U | 0.03 |
| A14G G27C C31A | 0.13 |
| A14G G17C G30A C42G | 0.12 |

| Variant | self-cleavage |
| --- | --- |
| C13U A16G G22A U34G | 0.04 |
| C13G G19C U32C | 0.04 |
| A14G C15U C18G | 0.07 |
| C13U A25G G29U U38A | 0.06 |
| A14G G22A U32G U38A C42A | 0.02 |
| C13U G19A U20G G27C | 0.02 |
| C13U G19U U20A G29A C42U | 0.03 |
| C13G G22A U32A | 0.05 |
| A14U C23U A41C C42U | 0.23 |
| A14G U32C U34A U38C | 0.03 |
| C13G G27C G36A | 0.04 |
| A14C G17U C23U | 0.21 |
| A14U C23A A24C | 0.89 |
| A14G A16G A41G | 0 |
| C13U A26C U34C C37U A41U | 0 |
| C13U C18U G27U C42A | 0.07 |
| C13U A26G A39G | 0.04 |
| C13G G35U C37G C42A | 0.05 |
| C13G G19C G30U G36U | 0.16 |
| A14C C18G C23A G27A G33A U38A | 0.16 |
| A14C U20C U34A G35A | 0.04 |
| C13U A24G G27A | 0.03 |
| A14G A24G C37U | 0.05 |
| C13U C23A C46A | 0.13 |

| Variant | self-cleavage |
| --- | --- |
| A14C U20C C31U A39C | 0 |
| A14G C15U U20C G21C A25C A26G | 0.1 |
| C13U G19U C31G C46G | 0.15 |
| C13G G29U G35C | 0.42 |
| C13U C23A U38A | 0.15 |
| C13U G21A U38C | 0.18 |
| C13U C31U G40U | 0.06 |
| A14G C31U A41G G44A | 0.04 |
| A14G G30U U38C | 0.1 |
| C13U C23A U43A | 0.11 |
| C13U U32C C46U | 0.14 |
| A14U A16C G19U U32C G35A | 0.02 |
| C13U A16U C23A G30A C37G | 0.13 |
| A14C A16U A25U A39C | 0.02 |
| A14U C15A A26G G44A | 0.02 |
| A14U C23G U32G G44C | 0.04 |
| C13U G35A A41G | 0.36 |
| A14G U28A G44A C45U | 0.08 |
| C13G G33A C46G | 0 |
| C13G G30C U32A U34A C42U | 0.02 |
| A14G G22U C37U G44U | 0.04 |
| C13G U20A U32G G40U U43A | 0.01 |
| A14G G22A G27U | 0.38 |
| A14G G19C A24C U38A | 0.09 |

| Variant | self-cleavage |
| --- | --- |
| C13U C15U G35A A41C | 0.02 |
| A14C G17U G22C | 0.04 |
| C13U U20A C46U | 0.17 |
| A14G G33U C46G | 0.02 |
| C13U G21U G22A G35A G36A G40A | 0.17 |
| A14C G22A G27U U34G G36A A39C | 0 |
| A14C G17C C31A C42A | 0.03 |
| C13U G35C A39C C42A | 0.03 |
| C13G G19C C23U C31U | 0.14 |
| A14U C18G G21A | 0.08 |
| A14U A16U G19A G21A | 0.11 |
| C13U G29A U32G | 0 |
| A14G G17A C37A A39U | 0.02 |
| A14G U38C C45A | 0.27 |
| A14C A25G G36U C46G | 0.03 |
| A14C G33U A39U | 0.02 |
| A14G G29U C42U | 0.09 |
| A14C G33C G35U C42A | 0.01 |
| A14G U20A U38A G40A | 0.03 |
| A14C U32A G40A | 0.01 |
| C13G G19C A24C | 0.24 |
| A14C A16U C42U C46U | 0.1 |
| C13U C18U A26C C46A | 0.04 |
| C13U C15U U28A | 0.07 |

| Variant | self-cleavage |
| --- | --- |
| C13U U20C A24C G29C G33C C42A | 0.01 |
| C13U C37G A41G C46A | 0.01 |
| C13U C18A C23U | 0.03 |
| C13U G30A C31A G33A U34A | 0.08 |
| C13U A25C C37U U38G | 0.01 |
| A14G G17C C18A | 0.04 |
| A14G G21U A24G | 0.24 |
| A14C A16C G29C G30U G35U C45G | 0.08 |
| A14C U20C G27A | 0.11 |
| C13U G19U G27U G40A C45G | 0.03 |
| A14C C15A U20C U32A | 0.03 |
| C13U G29U G30U | 0.05 |
| A14G C23U G29C C31A | 0.07 |
| C13U C15G C18G | 0 |
| A14C G21C C31G | 0.01 |
| C13G G19U A24C | 0.48 |
| C13U G17U U20G A24G G27A | 0.1 |
| C13U C15G A26C G35C | 0.01 |
| C13U U34C G40U C45G | 0.18 |
| C13G G33A A39U G40C C42U | 0.45 |
| A14U C31A G36A | 0.1 |
| A14G G17C C31A G35U A39C | 0 |
| C13G G22C A24U | 0.04 |
| A14C A16G G22C G33U A41U | 0.01 |

| Variant | self-cleavage |
| --- | --- |
| A14G G19A G29C | 0.39 |
| A14G G30U G36A | 0 |
| C13U C15A C23U A25U C42U | 0.24 |
| C13G G19U U20G G33A C45U | 0 |
| A14U A26U C37U U38G | 0.04 |
| C13U C15A U38A C45A | 0.02 |
| A14G G19U U20C | 0.28 |
| A14C G30U U32C | 0.14 |
| A14G G17U U20G G21U G40C C46A | 0.05 |
| A14C A16U U28G | 0.01 |
| A14U C18G A26G | 0.14 |
| A14U C37G A41C | 0.03 |
| A14G A24G G29U | 0.24 |
| A14G A16C C18G G22A | 0.09 |
| C13U C23A G36U | 0.09 |
| A14C G27U G40C | 0 |
| A14C A16U G36U | 0.04 |
| A14G C42G C46A | 0.03 |
| C13G G21U C37G G44A | 0.22 |
| A14G C15G U34A A39C G40A | 0 |
| C13G U34A C46A | 0.05 |
| C13U G29U C42G G44C | 0.04 |
| A14G C37A A41U | 0.08 |
| C13G U28G C37U A41U U43G C46G | 0.03 |

| Variant | self-cleavage |
| --- | --- |
| A14C A16C G33U A41U | 0.02 |
| A14G G19A C31A G44A | 0.1 |
| A14C U34G U38G | 0 |
| A14U A26C G30U | 0.2 |
| A14C G36A G44A C46A | 0.03 |
| C13U C23U G27U C42G | 0.03 |
| A14C U20C U28G U43A | 0 |
| A14U A16C C18U | 0.22 |
| A14U C18G U20A | 0.1 |
| C13G G22U A25G C37A | 0.03 |
| A14C A24G U38G | 0.01 |
| C13G G40U C46G | 0.06 |
| C13U C18U A26U | 0.04 |
| C13G U20A U34A G35A | 0.01 |
| A14G G21U C46G | 0.91 |
| C13G G21C G35U C37G U43G | 1.04 |
| A14U A16C C18G G22U C46A | 0.08 |
| A14C C15U C46U | 0.46 |
| C13G G21U U32G C42G C46A | 0.02 |
| C13U G21A G22C A26C G35C | 0.02 |
| C13G U28G C45G | 0.03 |
| C13U G40A C46A | 0.15 |
| A14C G22C C46A | 0.03 |
